The results in this text go back to ChEMBL document CHEMBL1201862, “PubChem BioAssay data set” (2004).

The structures appear in SMILES notation.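 Growth conditions: 96-well plates. Treatment: test compound, 48 hours, 5 concentrations. Analysis: linear interpolation between bracketing concentrations; unreached endpoints set to highest concentration. Abbreviation: GI50, concentration required for 50% inhibition of growth.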 The source made the active and inactive calls. Rule as the data show it: active = GI50 up to about 1.1 µM and inactive = higher. Bounds are passed on as bounds.

This experiment concerns NCI-H322M. Description: growth of human tumour cells (NCI), 48 h.
Regarding `CC1=C(C(=O)OC(C)(C)C)C(c2ccc([N+](=O)[O-])cc2)C(C(=O)OC(C)(C)C)=C(C)N1`, the GI50 was inactive: 18.3 µM.
On to `O=C(O)CN(CC(=O)O)c1ccccc1`, for which the GI50 was inactive: 78.9 µM.
With `O=c1[nH]c2nc(S)nc(S)c2[nH]1` the figure was inactive: > 100 µM; with `O=C(O)c1ccccc1C1c2ccccc2Oc2ccccc21`, inactive: > 100 µM.
With `C=C1CC(COc2ccc3c(C)c(Cl)c(=O)oc3c2)(c2ccccc2)OC1=O` (stereo not given) the figure was inactive: 4.11 µM; with `O=C(O)/C(Cc1ccnc2ccccc12)=N\O`, inactive: > 100 µM; with `Cc1cn2c(/C=N/NC(=N)N)c(-c3ccc(Cl)c([N+](=O)[O-])c3)nc2s1`, inactive: 1.63 µM.
For `CCO/C(Cc1ccc(Cl)cc1)=N/NC(N)=S`, the GI50 was inactive: > 100 µM.
With `CN(C)CCCN1CCc2c([nH]c3ccccc23)C1c1cccnc1` (stereo not given) the figure was inactive: > 100 µM.
Regarding `O=C(O)C(Cc1ccccc1)NCc1c(O)ccc2c(-c3ccccc3)cc(=O)oc12` (stereo not given), the GI50 was inactive: > 100 µM.
With `CC(C)(C)C1(O)Cc2ccccc2C(=O)O1` (stereo not given), the GI50 is inactive: > 100 µM.
With `O=[N+]([O-])c1cccnc1NCC1(CO)CC(Cc2ccccc2)C1` (stereo not given) the figure was inactive: 67 µM.
As for `SC1CCCN(Cc2ccccc2)C1` (stereo not given), the figure is inactive: > 100 µM.
As for `C=CCN(CC=C)Cn1c(=S)sc2ccccc21`, the GI50 is inactive: > 100 µM.
As for `C=CCN1/C(=C(\C#N)c2nc3ccccc3[nH]2)Sc2c1nc[nH]c2=O`, the figure is inactive: > 100 µM; as for `C1CN2N3CCCC23C1` (stereo not given), inactive: > 100 µM.
`CNC(=O)CN(CC(=O)NC)C(=O)NC`: the GI50 is inactive: > 100 µM.
As for `CCCCCCCCCCCC(=O)OC[C@@H](C[As](=O)(O)O)OC(=O)CCCCCCCCCCC`, the figure is inactive: 9.2 µM; as for `CC(=O)NC1(C)CCC(C(C)(C)NC(C)=O)CC1` (stereo not given), inactive: > 100 µM.
In the case of `CCOC(=O)c1cc(C(O)P2(=O)N(CC(C)(C)C)[C@@H]3CCCC[C@H]3N2CC(C)(C)C)cn1C(=O)OC(C)(C)C` (stereo not given in full), the GI50 was inactive: 19.9 µM.
As for `Cc1cc2oc3c(ccc(=O)n3C)c(=O)c2c(C)c1Cl`, the figure is inactive: 65.2 µM.
As for `C[N+]1(c2ccccc2)C=C(c2ccccc2)SC1=S` (stereo not given), the figure is inactive: > 100 µM; as for `O=CC(O)C(O)C(O)COc1cc(CO)cc2c1C(=O)c1ccccc1C2=O` (stereo not given), inactive: > 100 µM; as for `N#CCCN(c1ccc(/C=C2\N=C(c3ccc(Cl)cc3)OC2=O)cc1)S(=O)(=O)c1ccccc1`, inactive: > 100 µM.
With `CC(O)=C1C(=O)CCC1=O` the figure was inactive: > 100 µM.
Regarding `CC1=NN(c2ccccc2)C(=O)/C1=C1\SC(c2ccccc2)(c2ccccc2)c2ccccc21`, the GI50 is inactive: > 100 µM.
For `CCN(CCCl)c1cccc(NC(=O)c2ccc(C(=O)Nc3cccc(CN(C)C)c3)cc2)c1`, the GI50 is active: 0.23 µM.
With `CC1(C)OC2C(CO)OC(n3cnc(N)nc3=O)C2O1` (stereo not given), the GI50 was inactive: > 100 µM.
As for `C1CCCN(NC2=NCCO2)CC1`, the figure is inactive: > 100 µM; as for `C=Cc1cncc(C#N)c1CCc1c(C#N)cncc1C=C`, inactive: > 10 µM; as for `Clc1cccc(/C=c2\nc(-c3ccccc3)n3c2nc2ccccc23)c1`, inactive: > 100 µM.
With `Cc1ccc(C)c(/C(=N\N=C(N)N)C2CC2)c1`, the GI50 was inactive: 30.1 µM.
Consider `CN1CCC(OC(=O)Oc2ccccc2)(c2ccccc2)CC1`, for which the GI50 was inactive: 15.2 µM.
With `Brc1ccc(/N=C/C=C(\Nc2ccc(Br)cc2)C23CC4CC(CC(C4)C2)C3)cc1` the figure was inactive: > 55.5 µM; with `c1ccc2c(c1)Cc1c(Cc3csc4ccccc34)ccc3cccc-2c13`, inactive: > 100 µM.
On to `CCCCCCOc1ccc(C(=O)NOC)cc1`, for which the GI50 was inactive: > 100 µM.
With `CCOC(=O)C1OC(C2(C)OC3(OC4(C=CC3O)OC(C(C)C(=O)C(C)C(O)C(C)CC(C)c3c(Cl)cc(C)c(O)c3C(=O)O)C(C)CC4C)C(C)C2OC)CC1O` (stereo not given), the GI50 is active: 0.964 µM.
On to `CC(=O)C1=C(O)/C(=C\c2ccco2)OC1=O`, for which the GI50 is inactive: > 10 µM.
With `N=C1NC2(O)C(=O)c3ccccc3C2(O)N1` (stereo not given) the figure was inactive: > 100 µM; with `Cc1cc(C)nc(NS(=O)(=O)c2ccc(NC(=O)c3ccc4nc5ccccc5c(Nc5ccc(S(N)(=O)=O)cc5)c4c3)cc2)n1`, inactive: 67.1 µM.
`C[C@@H](Br)[C@@H]1CC[C@H]2c3[nH]c4ccccc4c3CCN2C1`: the GI50 was inactive: 41.5 µM.
As for `CCC1=C(CC)C1(C#N)[N+](=O)[O-]`, the figure is inactive: > 100 µM.
Regarding `N=c1oc2cc(O)ccc2cc1C(=O)Nc1cccc2ccccc12`, the GI50 was inactive: 14 µM.
As to `COC[n+]1cc2cc(OC)c(OC)cc2c2ccc3cc(OC)c(OC)cc3c21`, the GI50 was inactive: > 100 µM.
Take `Cc1c(C#N)c2nnn(-c3cccc(Cl)c3)c(=O)n2c1-c1ccccc1`: the GI50 is inactive: 3.93 µM.
With `CN1C(=O)NC(=O)/C(=C\Nc2ncccn2)C1=O` the figure was inactive: > 100 µM; with `O=C(O)/C(Cl)=C(\Cl)C(=O)c1ccccc1`, inactive: > 100 µM; with `CCOC(=O)/C(C#N)=C\c1ccc(N(CCC(=O)O)CCC(=O)O)c(I)c1`, inactive: > 10 µM.
With `CCCCNS(=O)(=O)c1n[nH]c(=O)[nH]c1=O` the figure was inactive: > 100 µM.
Regarding `CN(C)CCCN1c2ccc([N+](=O)[O-])cc2CCc2cccc([N+](=O)[O-])c21`, the GI50 is inactive: 14.6 µM.
On to `COc1cc(OC)cc(C(=O)Cc2c(C(=O)c3ccccc3)c3ccccc3n2C(=O)c2ccccc2)c1`, for which the GI50 is inactive: 50.5 µM.
On to `O=C1/C(=C/c2ccc(Cl)cc2)N=C(c2ccccc2)N1c1nc2c(Cl)cc(Cl)cc2s1`, for which the GI50 is inactive: 31.5 µM.
As for `COc1ccc(C2S/C(=C\c3cccc(O)c3)C(=O)N2NC(=O)Cc2ccccc2)cc1` (stereo not given), the figure is inactive: > 100 µM.
As for `COc1ccc2c3c([nH]c(=O)c2c1C(=O)O)-c1ccccc1CC3`, the GI50 is inactive: > 100 µM.
With `COc1cc(/C=C2/SC(c3ccccc3)N(c3ccccc3)C2=O)cc(OC)c1OC` (stereo not given) the figure was inactive: > 100 µM.
As for `C=C(Br)CNC(=O)Nc1ccc(Cl)c(Cl)c1`, the GI50 is inactive: 24.4 µM.
Turning to `CN(CCN(C)C(=O)CCn1ccc(=O)[nH]c1=O)C(=O)CCn1ccc(=O)[nH]c1=O`, the GI50 was inactive: > 100 µM.
With `CCOC(=O)c1cc(=O)c2ccnc3c2n1CCS3` the figure was inactive: > 100 µM; with `O=c1c(-c2ccccc2)c(SCCCN2CCCCC2)n(-c2ccccc2)c(=S)n1-c1ccccc1`, inactive: > 100 µM.
As for `COC(=O)C1=CC2C=CC(C1C(=O)OC)C1C(C(=O)OC)=C(C(=O)OC)C(C(=O)OC)=C(C(=O)OC)C21OC` (stereo not given), the figure is inactive: > 100 µM.
For `CCCCCCCCCCCCCC(=O)OCC(C[As](=O)(O)O)OC(=O)CCCCCCCCCCCCC` (stereo not given), the GI50 was inactive: > 100 µM.
As for `CSCCC(NC(=O)OC(C)(C)C)C(=O)NCCNc1ccc(NCCNC(=O)C(CCSC)NC(=O)OC(C)(C)C)c2c1C(=O)c1ccccc1C2=O` (stereo not given), the GI50 was inactive: 13.7 µM.
With `CCN(CC)/C(=C\Cl)Nc1ccccn1.[O-][Cl+3]([O-])([O-])O` the figure was inactive: > 100 µM; with `CN(C)CCNC(=O)c1cc([N+](=O)[O-])ccn1`, inactive: 33 µM; with `CCCCCCCCCCCCC(CCCCCCCCCCCC)OP(=O)(O)O`, inactive: > 100 µM.
With `S=c1[nH]nc(Cn2c3ccc(Br)cc3c3nc4ccccc4nc32)n1C1CCCCC1`, the GI50 was inactive: 34.3 µM.
With `O=CC(=C(I)I)c1ccccc1` the figure was inactive: 15.5 µM; with `Cc1ccccc1Nc1nc2c(s1)C(=O)c1ccccc1C2=O`, inactive: 15 µM.
With `COc1cc(NC(C)c2ccc3c(c2)OCCO3)cc(OC)c1OC` (stereo not given) the figure was inactive: 53 µM; with `CCc1cc(C)cc2[n+]1CC=C2C.[O-][Cl+3]([O-])([O-])[O-]`, inactive: > 100 µM; with `C=CCCc1cc(OC)ccc1CN(C)C(C)(C)CO`, inactive: > 100 µM.
As for `CCOC(=O)c1nc2cc(C(F)(F)F)ccc2nc1Nc1cc(OC)c(OC)c(OC)c1`, the figure is inactive: > 100 µM.
On to `Cc1nc2c(o1)C(=O)c1ccccc1/C2=N/c1ccc(N2CCOCC2)cc1`, for which the GI50 is inactive: 16.1 µM.
With `CC1(C)COC(c2c(-c3ccccc3)noc2C[S+]([O-])c2ccccc2)=N1` (stereo not given) the figure was inactive: 42.7 µM; with `C[Si](C)(C)OC1(C#N)c2ccccc2CCCC12CCCC2` (stereo not given), inactive: > 100 µM; with `O=C1C=C(Sc2ccccc2)c2nccc3c2c1nc1ccccc13`, inactive: 28.1 µM.
For the molecule `COc1ccc2[nH]c3c(C)c4ccnc(NCCCN(C)CCCNc5ccc6nnn7c8ccccc8c(=O)c5c67)c4c(C)c3c2c1`, the GI50 is active: 0.516 µM.
As for `CC(=O)N(CCN1C(=O)c2ccccc2C1=O)CCN1C(=O)c2ccccc2C1=O`, the figure is inactive: > 100 µM.
In the case of `CC(C)[C@@H]1ON1C(C)c1ccccc1` (stereo not given in full), the GI50 is inactive: > 100 µM.
As for `C=C[C@@]1(C)CCC2(O)C(CCC3C2(C)CCC[C@@]3(C)COC(=O)CC(=O)OC)C1` (stereo not given in full), the figure is inactive: 35 µM; as for `CC(C)(C)OC(=O)C1CC[C@@H](CC(=O)Oc2ccc([N+](=O)[O-])cc2)N1` (stereo not given in full), inactive: > 100 µM; as for `Cc1cc(OCc2nc(N)nc(N)c2-c2ccc(Cl)c(Cl)c2)ccc1[N+](=O)[O-]`, active: 0.425 µM.
As for `COc1cc2c(c(OC)c1OC)-c1ccc(SC)c(=O)cc1[C@@H](NCc1cccc(C#N)c1)CC2`, the figure is active: 0.0371 µM.
Turning to `COc1ccc(/N=C2\C(=O)Nc3ccc(Br)cc32)cc1`, the GI50 is inactive: 19.8 µM.
As for `COC(=O)/C(=C/c1ccc(OC)cc1)c1cc(OC)c(OC)c(OC)c1`, the figure is inactive: 4.03 µM.
